Data from patent publication US10336829B2, “Intracellular delivery compounds” (Sorrento Therapeutics, Inc., priority 2015, dated 2019).

Target: STAT3 (Homo sapiens, UniProt P40763)
Experiment: Cell binding assay of anti-STAT3 antibodies, fixed and permeabilized cells, flow cytometry
Design: endogenous in cells
Conditions: MDA-MB-468 and U251 cells, serial dilutions, PE anti-human IgG
Experimental: Next, the binding of the candidate anti-STAT3 antibodies to cellular targets was tested in cell binding assays using MDA-MB-435 breast cancer cells and U251 cells. The cells were seeded overnight in a 96 well plate, then fixed with PFA and permeabilized with methanol. Cells were incubated with serial dilutions of the anti-STAT3 antibody candidates ST1A5, ST3G12 and ST5G12 for one hour and 30 minutes. Following incubation, the cells were washed and incubated for 30 minutes with phycoerythrin (PE) conjugated anti-human IgG. Fluorescence was measured on an Intellicyte high-throughput flow cytometry analyzer. […] Bevacizumab (Avastin), a monoclonal antibody that inhibits vascular endothelial growth factor A (VEGF-A) was used as a negative control.

Sequence of STAT3 (P40763 whole entry): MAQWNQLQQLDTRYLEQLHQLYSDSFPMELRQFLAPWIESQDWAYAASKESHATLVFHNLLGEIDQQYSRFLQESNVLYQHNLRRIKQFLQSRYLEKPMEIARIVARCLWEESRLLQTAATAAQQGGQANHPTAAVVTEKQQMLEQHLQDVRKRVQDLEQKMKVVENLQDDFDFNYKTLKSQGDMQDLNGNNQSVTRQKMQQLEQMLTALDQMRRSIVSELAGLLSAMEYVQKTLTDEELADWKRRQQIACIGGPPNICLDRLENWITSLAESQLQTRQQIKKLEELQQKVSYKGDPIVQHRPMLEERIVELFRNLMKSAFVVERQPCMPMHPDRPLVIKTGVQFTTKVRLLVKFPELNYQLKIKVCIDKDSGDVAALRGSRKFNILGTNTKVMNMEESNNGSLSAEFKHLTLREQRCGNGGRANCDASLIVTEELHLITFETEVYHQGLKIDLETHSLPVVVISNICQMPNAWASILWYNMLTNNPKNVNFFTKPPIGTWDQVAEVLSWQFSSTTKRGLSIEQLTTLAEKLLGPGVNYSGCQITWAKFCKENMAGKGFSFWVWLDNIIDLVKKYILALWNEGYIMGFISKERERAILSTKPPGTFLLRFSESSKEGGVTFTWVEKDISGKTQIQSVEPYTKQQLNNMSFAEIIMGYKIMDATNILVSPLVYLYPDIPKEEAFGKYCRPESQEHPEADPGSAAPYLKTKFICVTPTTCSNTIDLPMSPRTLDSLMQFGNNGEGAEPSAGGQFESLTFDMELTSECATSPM

B1: ST1A5: Human anti-human STAT3 antibody; heavy chain variable SEQ ID NO: 1, light chain variable SEQ ID NO: 2 (antibody, V domains shown)
VH: [letters of about 100 residues not shown]DGGLGWGTYFRLGDAFDIWGQGTMVTVSS
VL: QSVLTQPPSVSKGLRQTATLTCTGNSNNVGNEGAAWLQQHQGHPPKLLSYRNFNRPSGISERFSASRSGNTASLTITGLQPEDEADYYCSAWDSSLSAWVFGGGTKLTVL
  binding to STAT3 / cellular antigens (MFI): did not show strong STAT3 binding
